Measurements published in PubChem BioAssay AID488969 (Vanderbilt High Throughput Screening Facility, 2010).
In all, about 110,000 compounds were measured (“z-score”: median about -0.1, highest 2% from about 2 on). The list shows a part of the results. Activity calls are given as the source filed them.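 Rule for the calls: active = z-score in the third read window above 3 or below -3; inactive = the rest.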

Target: Metabotropic glutamate receptor 8 (Rattus norvegicus) (UniProt P70579)
Experiment: rat mGluR8 modulators via GIRK flux, primary screen, cell-based, thallium flux, HTS (AID 488969)
Settings: HEK293 rat mGluR8, GIRK (G protein-gated inwardly rectifying potassium channel) thallium flux, FluoZin2; at 10 µM; stronger effect = higher value; submaximal glutamate (EC20) added with thallium

Sequence of UniProt P70579 (P70579 whole entry, looked up): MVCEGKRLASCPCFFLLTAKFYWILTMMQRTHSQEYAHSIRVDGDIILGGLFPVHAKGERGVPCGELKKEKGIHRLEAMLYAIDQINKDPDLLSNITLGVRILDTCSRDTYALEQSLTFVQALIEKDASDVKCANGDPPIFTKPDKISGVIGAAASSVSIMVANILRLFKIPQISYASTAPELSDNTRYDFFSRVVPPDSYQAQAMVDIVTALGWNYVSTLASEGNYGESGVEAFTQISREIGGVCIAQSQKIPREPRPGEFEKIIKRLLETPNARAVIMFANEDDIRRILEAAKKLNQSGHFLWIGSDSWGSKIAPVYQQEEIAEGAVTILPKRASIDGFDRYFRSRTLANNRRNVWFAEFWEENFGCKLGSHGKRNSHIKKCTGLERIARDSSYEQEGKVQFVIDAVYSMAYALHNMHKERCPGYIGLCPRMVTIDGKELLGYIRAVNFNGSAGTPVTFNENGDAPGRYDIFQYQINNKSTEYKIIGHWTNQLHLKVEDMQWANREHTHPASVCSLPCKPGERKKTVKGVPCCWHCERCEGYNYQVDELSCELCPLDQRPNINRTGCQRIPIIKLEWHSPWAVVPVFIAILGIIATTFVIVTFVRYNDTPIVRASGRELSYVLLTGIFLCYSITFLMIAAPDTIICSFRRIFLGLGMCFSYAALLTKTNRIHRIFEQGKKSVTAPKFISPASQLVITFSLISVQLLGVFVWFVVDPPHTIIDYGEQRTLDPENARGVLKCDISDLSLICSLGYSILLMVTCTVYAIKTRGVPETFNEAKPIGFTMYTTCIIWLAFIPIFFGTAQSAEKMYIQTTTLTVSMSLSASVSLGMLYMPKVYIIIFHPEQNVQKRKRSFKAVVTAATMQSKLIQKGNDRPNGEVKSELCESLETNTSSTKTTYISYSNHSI

| Compound | z-score |
| --- | --- |
| Cc1ccc(CNC2=NCCCCC2)n1C | 0.783 |
| O=C(Nc1ccc2c(c1)CCC2)c1cccc(S(=O)(=O)Nc2ccccc2Cl)c1 | -0.109 |
| COc1ccc(-c2cccc(C(=O)Nc3ccc(C)cc3)c2)cc1 | 0.0313 |
| C=CCNC(=O)CC(=O)N/N=C/c1ccc(F)cc1 | -0.18 |
| O=C(NCc1ccccc1)c1ccc2c(=O)n(CCCN3CCCC3=O)c(=S)[nH]c2c1 | active: 4.92 |
| CCOC(=O)C1=C(C)N=c2s/c(=C\c3ccc(OCC(=O)O)cc3)c(=O)n2C1c1ccc(OC(C)C)cc1 (stereo unspecified) | -0.361 |
| CC(C)(C)c1ccc(CSc2nnc(-c3ccccn3)n2Cc2ccco2)cc1 | -0.295 |
| O=C(CSc1nc(-c2ccco2)cc(C(F)(F)F)n1)NCCc1ccccc1 | 0.104 |
| CS(=O)(=O)N(CC(=O)NCCSc1ccc(Cl)cc1)c1ccc2c(c1)OCO2 | 0.176 |
| CC1(C)C/C(=C(/C#N)C(N)=O)CCO1 | -0.0474 |
| Cc1onc(-c2ccccc2Cl)c1C(=O)Nc1nc2c(s1)CCCC2 | -0.885 |
| COc1ccc(C(=O)N2CCCC(C(=O)N3CCCCCC3)C2)cc1 (stereo unspecified) | 0.0229 |
| COc1ccc(CCNc2ccc(S(=O)(=O)N3CCCC3)cc2[N+](=O)[O-])cc1 | 0.132 |
| CCCCn1c(NC(=O)c2ccccc2)c(C#N)c2nc3ccccc3nc21 | -0.0234 |
| Cc1cc(-n2c(C)cc(C(=O)COC(=O)CN=C3NS(=O)(=O)c4ccccc43)c2C)no1 | 0.00163 |
| CCn1cc(C(=O)N2CC(C)CC(C)C2)c(=O)c2cc(S(=O)(=O)N3CCOCC3)ccc21 (stereo unspecified) | -0.0127 |
| CCOC(=O)c1ccc(NC(=O)C2C3CCC(C3)C2C(=O)O)cc1 (stereo unspecified) | 0.472 |
| Fc1cccc(Cl)c1Cn1nnc2c(N3CCC4(CC3)OCCO4)ncnc21 | 0.0505 |
| CCOC(=O)N1CCN(C2=NC3(CCCCC3)C(C#N)C(=O)N2)CC1 (stereo unspecified) | 0.49 |
| CC(C)N1CCc2[nH]c(=S)[nH]c(=O)c2C1 | -0.199 |
| CCOC(=O)c1sc(NC(=O)c2cccs2)nc1C | 0.881 |
| COc1ccc(C2CC(C(F)(F)F)n3ncc(C(=O)NCC4CCCO4)c3N2)cc1OC (stereo unspecified) | -0.582 |

| Compound | z-score |
| --- | --- |
| O=C(NC1C(=O)NNC1c1ccccc1)c1ccc(F)cc1 (stereo unspecified) | 0.46 |
| O=C(O)c1ccc(COc2ccccc2/C=C2/NC(=O)N(c3cccc(Cl)c3)C2=O)cc1 | -0.502 |
| COc1ccc(CCNC(=O)CSc2nnc(CNC(=O)c3ccccc3F)o2)cc1OC | -0.112 |
| CCCOc1c(Br)cc(C(=O)NCC)cc1OC | 0.0209 |
| CCc1nn2c(N)c(/C=C3\C=Nc4ccccc43)c(=O)nc2s1 | -0.53 |
| Cc1ccccc1Cn1ccc(NC(=O)c2cnn3c(C(F)(F)F)cc(-c4ccco4)nc23)n1 | -1.34 |
| Cc1ccc(S(=O)(=O)Nc2cc(C(=O)O)ccc2N2CCCCC2)cc1 | 0.161 |
| Cc1cc(C)n(-c2nc3ccccc3c(=O)n2OCC(=O)N(C)C)n1 | 0.0136 |
| CC1CCCCN1Cc1nc2c(c(=O)n(C)c(=O)n2C)n1CCCc1ccccc1 (stereo unspecified) | -0.392 |
| CN(CC(=O)Nc1ccccc1N1CCOCC1)S(=O)(=O)c1ccc(F)cc1 | 0.0842 |
| Fc1ccc2c(c1)C(c1ccncc1)=NNC(c1ccc(Br)cc1)=N2 | -0.256 |
| Cc1cccc(NC(=S)NC2CCCC2)c1 | 0.36 |
| O=C(NC1CCCCC1)N1CCN(c2ncccn2)CC1 | 0.458 |
| Cc1noc(C)c1CSc1ccc2ccccc2n1 | -0.787 |
| Cn1c(=O)c2c(SC3CCCC3)nc(C3CC3)nc2n(C)c1=O | -0.0445 |
| Cc1cccc(OCc2nc(C)cc(=O)[nH]2)c1 | 0.559 |
| CC(C)CC(=O)c1c[nH]c(C(=O)NCCCN2CCOCC2)c1 | -0.72 |
| CCc1cc(/C(Cc2ccccn2)=N\O)c(O)cc1O | -0.234 |
| Cn1c(CSCc2ccc(F)cc2)nnc1SCC(=O)Nc1nccs1 | 0.274 |
| Cc1cc(C(=O)COC(=O)Cc2n[nH]c(=O)c3ccccc23)c(C)n1-c1ccc2c(c1)OCCO2 | -0.104 |
| CC1CCCC(C)N1S(=O)(=O)c1ccc(NC(=O)CCn2cnc3ccccc3c2=O)cc1 (stereo unspecified) | -0.218 |
| CCC(C)NC(=O)c1cc(Cl)ccc1OC (stereo unspecified) | -0.0546 |

| Compound | z-score |
| --- | --- |
| COc1ccc(NC(=S)NN2CCN(C)CC2)cc1 | -0.193 |
| O=C(COC(=O)Cn1cnc2ccccc2c1=O)Nc1ccc(Cl)c(C(F)(F)F)c1 | -0.01 |
| NC(=O)C1(c2ccccc2)CCOCC1 | 0.0345 |
| Cc1c(S(=O)(=O)N2CCN(C(=O)c3ccco3)CC2)c(=O)n(C)c(=O)n1C | -0.147 |
| CCOC(=O)c1c(-c2ccncc2)csc1N | 0.423 |
| CCOC(=O)C1=C(CSc2nc3ccccc3s2)NC(=O)NC1c1cc(C)ccc1C (stereo unspecified) | -0.197 |
| CCOCc1nnc(NC(=O)CSc2ccccc2)s1 | 0.394 |
| O=C(Nc1nnc(-c2ccc3c(c2)CCCC3)o1)c1ccccc1 | active: 15.5 |
| Cc1nc2scc(-c3cccs3)c2c(=O)n1-n1cccc1 | 0.824 |
| O=C(O)Cc1ccc2c(c1)N(S(=O)(=O)c1cccc(C(F)(F)F)c1)CC(C(=O)O)O2 (stereo unspecified) | -0.121 |
| N#Cc1c(SCC(=O)OCc2ccccc2)nsc1SCC(=O)OCc1ccccc1 | 0.0135 |
| Cc1ccc(C(=O)NCCSCc2ccc(Cl)cc2Cl)cc1[N+](=O)[O-] | 0.0726 |
| COc1ccc(N=C2C(=Nc3ccc(OC)cc3)N(c3ccc(OC)cc3)C(=S)N2c2ccccc2)cc1 | -0.0732 |
| Cc1n[nH]c(=S)c2nn(-c3ccccc3F)c(C)c12 | -0.144 |
| COc1ccc(C2Nc3ccccc3C(=O)N2c2ccc(F)cc2)cc1Cn1nnc2ccccc21 (stereo unspecified) | -0.647 |
| O=C(CSc1nnnn1-c1ccccc1)N1N=CCC1c1ccccc1 (stereo unspecified) | -0.496 |
| COc1ccc(NC(=O)CN2CCN(CC(=O)Nc3ccccc3F)CC2)cc1OC | 0.797 |
| O=C(c1ccc(S(=O)(=O)N2CCOCC2)cc1)N1CCN(C2=NS(=O)(=O)c3ccccc32)CC1 | -0.0984 |
| N/C(=N\OC(=O)Cc1ccc(Cl)cc1)c1cccnc1 | -0.232 |
| CCOC(=O)c1ccc(N2CC(O)=C(c3nc4ccccc4c(=O)[nH]3)C2=N)cc1 | -0.431 |
| Cc1ccc(N(C(=O)Nc2ccccc2)C2=NCC(C)S2)cc1 (stereo unspecified) | -0.166 |
| CCOC(=O)C(CSCC(=O)c1ccc(Cl)cc1)NC(=O)OC(C)(C)C (stereo unspecified) | -0.409 |

| Compound | z-score |
| --- | --- |
| OC(c1ccccc1)C1CN(Cc2ccccc2)CCC1(O)c1ccccc1 (stereo unspecified) | 1.94 |
| O=C(CCCC(=O)OCC(=O)NC1CCCC1)Nc1ccccn1 | 0.649 |
| CCC(=O)Nc1ccc(-c2nnc(SCC(=O)N3CCCCC3)n2C)cc1 | 0.0527 |
| CC1(C)C2CCC1(C)C(NC1=NCCC1)C2 (stereo unspecified) | -0.924 |
| CC1Cc2cc(/C(O)=C3/C(=O)C(=O)N(CCCN(C)C)C3c3ccncc3)ccc2O1 (stereo unspecified) | 0.147 |
| Cc1nc2ccccn2c1C(=O)CSc1ccc(Cl)cc1Cl | -0.488 |
| COC(=O)c1cc(NCc2cccs2)ccc1N1CCOCC1 | -0.336 |
| CCOc1ccc(N(CC(=O)O)S(=O)(=O)c2ccc(F)cc2)cc1 | 1.12 |
| Cc1oc(-c2ccccc2)cc1C(=O)Nc1cccc2ccccc12 | -0.055 |
| Cc1ccc2oc(-c3cccc(NC(=S)NC(=O)c4cccs4)c3)nc2c1 | active: 3.78 |
| CCOc1ccc(NC(=O)N2CCC(c3ccc(C)cc3)C2)cc1 (stereo unspecified) | -0.0972 |
| CC1CCN(S(=O)(=O)c2ccc(C(=O)Nc3ccccc3-c3nc4ccccc4[nH]3)cc2)CC1 | -0.163 |
| O=C(/C=C/c1ccccc1)N/C(=C/c1ccccc1)C(=O)Nc1ccccc1O | -0.044 |
| Cc1ccc(Sc2ncccc2COC(=O)Nc2ccccc2)cc1 | -0.0605 |
| CCOC(=O)C1C(=O)N(C(=O)c2ccc(OC)cc2)CC1c1ccccc1 (stereo unspecified) | -0.335 |
| O=C(O)c1ccc(C2SCC(=O)N2Cc2ccccc2)cc1 (stereo unspecified) | 0.275 |
| C/C(=C1/SC(N2CCOCC2)=NC1=O)c1ccc(Cl)cc1 | -0.254 |
| COc1ccc2c(-c3ccccc3)cc(SCC(=O)NC3CCS(=O)(=O)C3)nc2c1 (stereo unspecified) | -0.06 |
| COc1cc(S(=O)(=O)Nc2ccc(C)cc2)ccc1N=Cc1c(C)[nH]n(-c2ccc(C)cc2)c1=O | -0.0253 |
| N/C(=N\OCC(=O)Nc1ccccc1)c1nonc1N | 0.0337 |
| CCC(C)(C)NC(=O)C(c1ccncc1)N(Cc1ccc(C)cc1)C(=O)c1csnn1 (stereo unspecified) | 0.742 |
| O=C(COc1ccc(Cl)cc1Cl)NCCCn1ccnc1 | 0.0498 |

| Compound | z-score |
| --- | --- |
| CCOC(=O)c1ccc2c(c1)nc(SCC(=O)N1CCCCC1)n2CC | 0.447 |
| CCOC(=O)/C(=C\Nc1ccc(OC(F)(F)F)cc1)Sc1ncc(C(F)(F)F)cc1Cl | -0.436 |
| Cc1cc(NC(=O)CSc2nc(CC(C)(C)C)nc3c2c(=O)n(C)c(=O)n3C)no1 | -0.0135 |
| N#Cc1sc2nc(N3CCCCC3)c3c(c2c1N)CCCC3 | -0.0906 |
| Cc1ccc(C(=O)c2ccc([N+](=O)[O-])cc2)c(C)c1 | -0.106 |
| Cc1nc2ccc(S(=O)(=O)NCC(=O)N3CCN(c4ccccn4)CC3)cc2s1 | -0.164 |
| COc1ccccc1N1CCN(C(=O)c2ccc3nc(-c4ccco4)c(-c4ccco4)nc3c2)CC1 | -0.672 |
| Cc1nc(CS(=O)(=O)c2ccccc2)cc(N2CCOCC2)n1 | -0.194 |
| CCOC(=O)Cn1c(=N)n(Cc2ccccc2)c2ccccc21 | 0.46 |
| O=C(NC(Cc1ccccc1)C(=O)O)/C(=C\c1ccc(F)cc1)NC(=O)c1ccccc1 (stereo unspecified) | -0.491 |
| O=C(Nc1cccc2ncccc12)c1cccc(F)c1 | -0.113 |
| CCCCOP(=O)(OCCCC)C1(NS(=O)(=O)c2ccccc2)C=CC(=O)c2ccccc21 (stereo unspecified) | -0.186 |
| O=C1c2cc(S(=O)(=O)NCCCO)ccc2-c2ccc(S(=O)(=O)NCCCO)cc21 | 0.152 |
| O=[N+]([O-])c1cc(-c2nnc(-c3ccccc3)o2)ccc1Oc1ccc(Cl)cc1 | -0.127 |
| CC(C(=O)NC(=O)NC1CCCCC1)N1CCN(C(c2ccccc2)c2ccccc2)CC1 (stereo unspecified) | 0.532 |
| COc1ccccc1NC(=O)N1CCN(c2cccc(C(F)(F)F)c2)CC1 | -0.14 |
| CCCCOc1ccc(C2=NNC(=O)CC2)cc1 | -0.538 |
| O=C(Nc1ccccc1N1CCOCC1)c1cccs1 | 0.511 |
